Results on 32 molecules are retold here after patent US20240124614A1.

Changes are numbered by the printed parent chain.

This test has as its target ECM (extracellular matrix). As to the kind of experiment: ECL plate assay on coated ECM (Matrigel).

B1: hT4VL.FRv40501 (antibody, human IgG1, kappa)
heavy: EVQLVESGGGLVQPGGSLRLSCAASGYTFTSYVMHWVRQAPGKGLEWVSAINPYNDGNYYADSVKGRFTISRDNSRKTLYLQMNSLRAEDTAVYYCARGAYKRGYAMDYWGQGTTVTVSSASTKGPSVFPLAPSSKSTSGGTAALGCLVKDYFPEPVTVSWNSGALTSGVHTFPAVLQSSGLYSLSSVVTVPSSSLGTQTYICNVNHKPSNTKVDKKV[human IgG1 Fc not given here]GSGGGSVTGYRLFEEIL
light: DLVMTQSPSSLSASVGDRVTITCKSSQSLFESKTRKNYLAWYQQKPGKAPKLLIYWASTRESGVPARFSGSGSGTDFTLTISSLEPEDFAVYYCHQYYYEPYTFGQGTKVEIKRTVAAPSVFIFPPSDEQLKSGTASVVCLLNNFYPREAKVQWKVDNALQSGNSQESVTEQDSKDSTYSLSSTLTLSKADYEKHKVYACEVTHQGLSSPVTKSFNRGEC
Consider B1, for which the ECM binding vs Control Ab (pH 5.8) (fold vs Control Ab) was 7.52 and the ECM binding vs Control Ab (pH 7.4) (fold vs Control Ab) amounted to 1.04.

B2: hT4VL.FRv40509 (antibody, human IgG1, kappa)
heavy: B1 heavy
light: B1 light with K33S, E100Q
For B2, the ECM binding vs Control Ab (pH 5.8) (fold vs Control Ab) worked out at 6.26 and the ECM binding vs Control Ab (pH 7.4) (fold vs Control Ab) amounted to 1.02.

B3: hT4VL.FRv40511 (antibody, human IgG1, kappa)
heavy: B1 heavy
light: B1 light with K33S, H95Q, Y97E, E100Q
For the molecule B3, the ECM binding vs Control Ab (pH 5.8) (fold vs Control Ab) is 13.1 and the ECM binding vs Control Ab (pH 7.4) (fold vs Control Ab) amounted to 1.14.

B4: hT4VL.FRv40525 (antibody, human IgG1, kappa)
heavy: B1 heavy
light: B1 light with E31N, S32D, H95Q, Y97E, E100Q, P101M
Consider B4, for which the ECM binding vs Control Ab (pH 5.8) (fold vs Control Ab) was 24.8 and the ECM binding vs Control Ab (pH 7.4) (fold vs Control Ab) was determined as 2.41.

B5: hT4VL.FRv40512 (antibody, human IgG1, kappa)
heavy: B1 heavy
light: B1 light with K33S, H95Q, Y97F, E100Q
With B5, the ECM binding vs Control Ab (pH 5.8) (fold vs Control Ab) was 8.43 and the ECM binding vs Control Ab (pH 7.4) (fold vs Control Ab) is 1.21.

B6: hT4VL.FRv40506 (antibody, human IgG1, kappa)
heavy: B1 heavy
light: B1 light with K33S, H95Y
Regarding B6, the ECM binding vs Control Ab (pH 5.8) (fold vs Control Ab) turned out to be 11.6 and the ECM binding vs Control Ab (pH 7.4) (fold vs Control Ab) was found to be 1.04.

B7: hT4VL.FRv40508 (antibody, human IgG1, kappa)
heavy: B1 heavy
light: B1 light with K33S, H95Q, Y97F
For the molecule B7, the ECM binding vs Control Ab (pH 5.8) (fold vs Control Ab) was 5.73 and the ECM binding vs Control Ab (pH 7.4) (fold vs Control Ab) was determined as 0.78.

B8: hT4VL.FRv40520 (antibody, human IgG1, kappa)
heavy: B1 heavy
light: B1 light with K33R, K36L, H95Y
On to B8, for which the ECM binding vs Control Ab (pH 5.8) (fold vs Control Ab) turned out to be 7.03 and the ECM binding vs Control Ab (pH 7.4) (fold vs Control Ab) is 2.36.

B9: hT4VL.FRv40516 (antibody, human IgG1, kappa)
heavy: B1 heavy
light: B1 light with K33V, H95Q, Y97F
As to B9, the ECM binding vs Control Ab (pH 5.8) (fold vs Control Ab) came to 6.99 and the ECM binding vs Control Ab (pH 7.4) (fold vs Control Ab) came out at 0.86.

B10: hT4VL.FRv40513 (antibody, human IgG1, kappa)
heavy: B1 heavy
light: B1 light with K33V
Take B10: the ECM binding vs Control Ab (pH 5.8) (fold vs Control Ab) was 3.49 and the ECM binding vs Control Ab (pH 7.4) (fold vs Control Ab) turned out to be 0.63.

B11: hT4VL.FRv40503 (antibody, human IgG1, kappa)
heavy: B1 heavy
light: B1 light with H95Q, Y97E
For the molecule B11, the ECM binding vs Control Ab (pH 5.8) (fold vs Control Ab) amounted to 14.1 and the ECM binding vs Control Ab (pH 7.4) (fold vs Control Ab) was 1.1.

B12: hT4VL.FRv40528 (antibody, human IgG1, kappa)
heavy: B1 heavy
light: B1 light with E31N, S32E, H95Q, Y97F
As to B12, the ECM binding vs Control Ab (pH 5.8) (fold vs Control Ab) stood at 18.2 and the ECM binding vs Control Ab (pH 7.4) (fold vs Control Ab) is 2.11.

B13: hT4VL.FRv40504 (antibody, human IgG1, kappa)
heavy: B1 heavy
light: B1 light with H95Q, Y97F
Consider B13, for which the ECM binding vs Control Ab (pH 5.8) (fold vs Control Ab) is 12.9 and the ECM binding vs Control Ab (pH 7.4) (fold vs Control Ab) was found to be 1.57.

B14: hT4VL.FRv40519 (antibody, human IgG1, kappa)
heavy: B1 heavy
light: B1 light with K33R, K36L
In the case of B14, the ECM binding vs Control Ab (pH 5.8) (fold vs Control Ab) came out at 4.8 and the ECM binding vs Control Ab (pH 7.4) (fold vs Control Ab) came out at 1.51.

B15: hT4VL.FRv40522 (antibody, human IgG1, kappa)
heavy: B1 heavy
light: B1 light with E31N, S32D, H95Q, Y97F
With B15, the ECM binding vs Control Ab (pH 5.8) (fold vs Control Ab) stood at 17 and the ECM binding vs Control Ab (pH 7.4) (fold vs Control Ab) stood at 1.95.

B16: hT4VL.FRv40529 (antibody, human IgG1, kappa)
heavy: B1 heavy
light: B1 light with E31N, S32E, H95Q, Y97E, E100Q
For B16, the ECM binding vs Control Ab (pH 5.8) (fold vs Control Ab) worked out at 26.7 and the ECM binding vs Control Ab (pH 7.4) (fold vs Control Ab) was determined as 2.35.

B17: hT4VL.FRv40521 (antibody, human IgG1, kappa)
heavy: B1 heavy
light: B1 light with E31N, S32D, H95Q, Y97E
B17: the ECM binding vs Control Ab (pH 5.8) (fold vs Control Ab) was determined as 17.9 and the ECM binding vs Control Ab (pH 7.4) (fold vs Control Ab) came out at 1.15.

B18: hT4VL.FRv40515 (antibody, human IgG1, kappa)
heavy: B1 heavy
light: B1 light with K33V, H95Q, Y97E
In the case of B18, the ECM binding vs Control Ab (pH 5.8) (fold vs Control Ab) is 11.9 and the ECM binding vs Control Ab (pH 7.4) (fold vs Control Ab) was 0.85.

B19: hT4VL.FRv40524 (antibody, human IgG1, kappa)
heavy: B1 heavy
light: B1 light with E31N, S32D, H95Q, Y97F, E100Q
In the case of B19, the ECM binding vs Control Ab (pH 5.8) (fold vs Control Ab) is 26.8 and the ECM binding vs Control Ab (pH 7.4) (fold vs Control Ab) was determined as 3.2.

B20: hT4VL.FRv40531 (antibody, human IgG1, kappa)
heavy: B1 heavy
light: B1 light with E31N, K33S, R35S
For B20, the ECM binding vs Control Ab (pH 5.8) (fold vs Control Ab) came out at 1.41 and the ECM binding vs Control Ab (pH 7.4) (fold vs Control Ab) came to 0.43.

B21: hT4VL.FRv40518 (antibody, human IgG1, kappa)
heavy: B1 heavy
light: B1 light with K33R, R35S, H95Y
In the case of B21, the ECM binding vs Control Ab (pH 5.8) (fold vs Control Ab) is 8.3 and the ECM binding vs Control Ab (pH 7.4) (fold vs Control Ab) came out at 1.32.

B22: hT4VL.FRv40517 (antibody, human IgG1, kappa)
heavy: B1 heavy
light: B1 light with K33R, R35S
Regarding B22, the ECM binding vs Control Ab (pH 5.8) (fold vs Control Ab) is 3.34 and the ECM binding vs Control Ab (pH 7.4) (fold vs Control Ab) was found to be 0.85.

B23: hT4VL.FRv40502 (antibody, human IgG1, kappa)
heavy: B1 heavy
light: B1 light with H95Y
As for B23, the ECM binding vs Control Ab (pH 5.8) (fold vs Control Ab) worked out at 19.3 and the ECM binding vs Control Ab (pH 7.4) (fold vs Control Ab) was found to be 1.65.

B24: hT4VL.FRv40527 (antibody, human IgG1, kappa)
heavy: B1 heavy
light: B1 light with E31N, S32E, H95Q, Y97E
As to B24, the ECM binding vs Control Ab (pH 5.8) (fold vs Control Ab) turned out to be 18.5 and the ECM binding vs Control Ab (pH 7.4) (fold vs Control Ab) was 1.51.

B25: hT4VL.FRv40510 (antibody, human IgG1, kappa)
heavy: B1 heavy
light: B1 light with K33S, H95Y, E100Q
Consider B25, for which the ECM binding vs Control Ab (pH 5.8) (fold vs Control Ab) was 17.7 and the ECM binding vs Control Ab (pH 7.4) (fold vs Control Ab) was 1.7.

B26: hT4VL.FRv40526 (antibody, human IgG1, kappa)
heavy: B1 heavy
light: B1 light with E31N, S32D, H95Q, Y97F, E100Q, P101M
As for B26, the ECM binding vs Control Ab (pH 5.8) (fold vs Control Ab) amounted to 15.7 and the ECM binding vs Control Ab (pH 7.4) (fold vs Control Ab) was found to be 2.83.

B27: hT4VL.FRv40507 (antibody, human IgG1, kappa)
heavy: B1 heavy
light: B1 light with K33S, H95Q, Y97E
With B27, the ECM binding vs Control Ab (pH 5.8) (fold vs Control Ab) turned out to be 8.26 and the ECM binding vs Control Ab (pH 7.4) (fold vs Control Ab) was determined as 0.77.

B28: hT4VL.FRv40514 (antibody, human IgG1, kappa)
heavy: B1 heavy
light: B1 light with K33V, H95Y
Turning to B28, the ECM binding vs Control Ab (pH 5.8) (fold vs Control Ab) turned out to be 13 and the ECM binding vs Control Ab (pH 7.4) (fold vs Control Ab) came out at 1.23.

B29: hT4VL.FRv40505 (antibody, human IgG1, kappa)
heavy: B1 heavy
light: B1 light with K33S
Take B29: the ECM binding vs Control Ab (pH 5.8) (fold vs Control Ab) was 4.21 and the ECM binding vs Control Ab (pH 7.4) (fold vs Control Ab) worked out at 0.66.

B30: hT4VL.FRv40523 (antibody, human IgG1, kappa)
heavy: B1 heavy
light: B1 light with E31N, S32D, H95Q, Y97E, E100Q
Regarding B30, the ECM binding vs Control Ab (pH 5.8) (fold vs Control Ab) is 30.2 and the ECM binding vs Control Ab (pH 7.4) (fold vs Control Ab) was determined as 2.57.

B31: hT4VL.FRv40530 (antibody, human IgG1, kappa)
heavy: B1 heavy
light: B1 light with E31N, S32E, H95Q, Y97F, E100Q
On to B31, for which the ECM binding vs Control Ab (pH 5.8) (fold vs Control Ab) is 28.1 and the ECM binding vs Control Ab (pH 7.4) (fold vs Control Ab) was 3.49.

B32: hT4VL.FRv40532 (antibody, human IgG1, kappa)
heavy: B1 heavy
light: B1 light with E31N, K33S, R35S, H95Y
Turning to B32, the ECM binding vs Control Ab (pH 5.8) (fold vs Control Ab) is 6.44 and the ECM binding vs Control Ab (pH 7.4) (fold vs Control Ab) is 0.58.
